Some of the results follow.

Assay [1] deals with HSkMC (human skeletal muscle cells). The assay is described as follows: cytotoxicity call (relative viability < 0.9). The conditions noted are these: 10 µM.
The test system of assay [2] is HepG2. The assay is described as follows: cytotoxicity call (relative viability < 0.9). Particulars: 10 µM.
The subject of assay [3] is S. aureus RN4220. Briefly: growth inhibition call (relative growth <= 0.2). Particulars: 50 µM.

Take `Cc1noc(C)c1S(=O)(=O)N(C)C[C@H]1OCCCC[C@H](C)Oc2ccc(NS(C)(=O)=O)cc2C(=O)N([C@H](C)CO)C[C@@H]1C`: the cytotoxicity call in assay [1] and in assay [2] was “inactive” each time. The growth inhibition call in assay [3] was “inactive”.
For the compound `Cl.Cl.NCCSSCCN`, the cytotoxicity call in assay [1] and in assay [2] was “inactive” each time. Moreover, the growth inhibition call in assay [3] is “inactive”.
As for `COc1ccc(NC(=O)Nc2ccc3c(c2)CC(=O)N([C@H](C)CO)C[C@H](C)[C@@H](CN(C)CC2CCCCC2)O3)cc1`, the cytotoxicity call in assay [1] and in assay [2] was “inactive” each time. Besides, in assay [3], the growth inhibition call was “inactive”.
On to `C[C@H](CO)N1C[C@H](C)[C@H](CN(C)C(=O)C2CCCCC2)OCCCC[C@H](C)Oc2ccc(NC(=O)Cc3ccccc3)cc2C1=O`, for which the cytotoxicity call in assay [1] and in assay [2] was “inactive” throughout. Besides, in assay [3], the growth inhibition call was “inactive”.
Regarding `C[C@H](CO)N1C[C@H](C)[C@H](CN(C)S(=O)(=O)c2cccs2)OCCCC[C@H](C)Oc2ccc(NC(=O)Nc3ccc(C(F)(F)F)cc3)cc2C1=O`, the cytotoxicity call in assay [1] and in assay [2] was “inactive” in each case. For the same compound, the growth inhibition call in assay [3] is “inactive”.
For `c1ccc(-c2nn[nH]n2)cc1`, the cytotoxicity call in assay [1] and in assay [2] was “inactive” in each case. In assay [3], the growth inhibition call was “inactive”.
With `C[C@H]1CN([C@@H](C)CO)C(=O)Cc2cc(NC(=O)Cn3cnnn3)ccc2O[C@@H]1CN(C)S(C)(=O)=O`, the cytotoxicity call in assay [1] and in assay [2] was “inactive” throughout. Further, in assay [3], the growth inhibition call is “inactive”.
Regarding `C[C@@H]1CCCCO[C@@H](CN(C)Cc2ccccc2)[C@H](C)CN([C@H](C)CO)C(=O)c2cc(NC(=O)Nc3ccc4c(c3)OCO4)ccc2O1`, the cytotoxicity call in assay [1] and in assay [2] was “inactive” each time. Further, the growth inhibition call in assay [3] is “inactive”.
With `Cc1ccc(N2C(=O)c3ccccc3[C@@H](C(=O)NCCN3CCOCC3)[C@@H]2c2ccc(CO)cc2)nc1`, the cytotoxicity call in assay [1] and in assay [2] was “inactive” throughout. The growth inhibition call in assay [3] was “inactive”.
Turning to `COc1ccc(cc1)CN1C[C@]2(CCN(CC2)C(=O)Nc2cccc(c2)F)c2c([nH]c3cc(ccc23)OC)[C@@H]1CO`, the cytotoxicity call in assay [1] and in assay [2] was “inactive” throughout. Also, the growth inhibition call in assay [3] was “inactive”.
For `C[C@@H]1CCCCO[C@@H](CN(C)Cc2ccc(C(F)(F)F)cc2)[C@@H](C)CN([C@H](C)CO)C(=O)c2cc(NC(=O)Cc3ccccc3)ccc2O1`, the cytotoxicity call in assay [1] is “inactive”. Besides, the cytotoxicity call in assay [2] is “active”. For the same compound, the growth inhibition call in assay [3] was “inactive”.
As to `C[C@H]1CN([C@@H](C)CO)C(=O)c2cc(NC(=O)CCN3CCOCC3)ccc2O[C@@H]1CN(C)Cc1ccncc1`, the cytotoxicity call in assay [1] and in assay [2] was “inactive” in each case. The growth inhibition call in assay [3] was “inactive”.
Regarding `Cc1cccn2c(=O)c(-c3nnn[n-]3)cnc12.[K+]`, the cytotoxicity call in assay [1] and in assay [2] was “inactive” in each case. In assay [3], the growth inhibition call was “inactive”.
For the compound `C[C@@H]1CCCCO[C@H](CN(C)Cc2ccc(Cl)c(Cl)c2)[C@@H](C)CN([C@H](C)CO)C(=O)c2cc(NC(=O)Nc3ccccc3)ccc2O1`, the cytotoxicity call in assay [1] and in assay [2] was “inactive” in each case. The growth inhibition call in assay [3] was “inactive”.
`COCC(=O)N1C[C@H](C)[C@H](OC)CN(C)C(=O)c2cc(NC(=O)c3cc(C)on3)ccc2OC[C@H]1C`: the cytotoxicity call in assay [1] and in assay [2] was “inactive” each time. In addition, the growth inhibition call in assay [3] is “inactive”.
On to `COc1cccc(NC(=O)N[C@H]2CC[C@@H](CC(=O)N3CCOCC3)O[C@@H]2CO)c1`, for which the cytotoxicity call in assay [1] and in assay [2] was “inactive” each time. The growth inhibition call in assay [3] was “inactive”.
For `COc1cccc(CN(C)C[C@H]2OCc3ccccc3-c3c(n(C)c4ccccc34)C(=O)N([C@@H](C)CO)C[C@H]2C)c1`, the cytotoxicity call in assay [1] is “inactive”. Moreover, in assay [2], the cytotoxicity call is “active”. In addition, in assay [3], the growth inhibition call was “inactive”.
As to `COc1ccc(NC(=O)N(C)C[C@@H]2OCCCC[C@H](C)Oc3ccc(NS(=O)(=O)c4ccccc4)cc3C(=O)N([C@H](C)CO)C[C@@H]2C)cc1`, the cytotoxicity call in assay [1] and in assay [2] was “inactive” throughout. In addition, the growth inhibition call in assay [3] was “inactive”.
For `C[C@@H]1CCCCO[C@@H](CN(C)Cc2ccc(C(F)(F)F)cc2)[C@H](C)CN([C@H](C)CO)C(=O)c2cc(NC(=O)c3ccncc3)ccc2O1`, the cytotoxicity call in assay [1] and in assay [2] was “inactive” in each case. Moreover, the growth inhibition call in assay [3] was “inactive”.
Take `COCC(=O)Nc1ccc2c(c1)C(=O)N(C)[C@@H]1CC[C@@H](CC(=O)NCc3ccc(OC)cc3)O[C@@H]1CO2`: the cytotoxicity call in assay [1] and in assay [2] was “inactive” in each case. In assay [3], the growth inhibition call was “inactive”.
On to `CC(=O)CC(c1ccccc1)c1c(O)c2ccccc2oc1=O` (centres undefined), for which the cytotoxicity call in assay [1] is “inactive”. In assay [2], the cytotoxicity call was “active”. Moreover, the growth inhibition call in assay [3] is “inactive”.
As for `Cc1ccc(S(=O)(=O)N(C)C[C@@H]2Oc3ccc(NS(=O)(=O)c4ccccc4)cc3C(=O)N([C@H](C)CO)C[C@@H]2C)cc1`, the cytotoxicity call in assay [1] and in assay [2] was “inactive” throughout. For the same compound, the growth inhibition call in assay [3] was “inactive”.
As to `CO[C@H]1CN(C)C(=O)c2cc(NC(=O)c3ccc(F)cc3)ccc2OC[C@H](C)N(C(=O)CN(C)C)C[C@H]1C`, the cytotoxicity call in assay [1] and in assay [2] was “inactive” each time. For the same compound, the growth inhibition call in assay [3] was “inactive”.
For `Cc1noc(C)c1NC(=O)N(C)C[C@H]1Oc2ccc(NC(=O)c3ccncc3)cc2CC(=O)N([C@H](C)CO)C[C@@H]1C`, the cytotoxicity call in assay [1] and in assay [2] was “inactive” each time. Further, the growth inhibition call in assay [3] was “inactive”.
For `C#CC1(O)CCC2C3CCc4cc(OC5CCCC5)ccc4C3CCC21C` (centres undefined), the cytotoxicity call in assay [1] and in assay [2] was “inactive” throughout. In addition, the growth inhibition call in assay [3] was “inactive”.
`Nc1ncnc(NC[C@H]2CCCO2)c1[N+](=O)[O-]`: the cytotoxicity call in assay [1] and in assay [2] was “inactive” in each case. Further, in assay [3], the growth inhibition call was “inactive”.
Turning to `C[C@H](CO)N1C[C@H](C)[C@@H](CN(C)Cc2ccc(Cl)c(Cl)c2)OCCCC[C@H](C)Oc2ccc(NC(=O)Nc3ccc(C(F)(F)F)cc3)cc2C1=O`, the cytotoxicity call in assay [1] and in assay [2] was “active” in each case. The growth inhibition call in assay [3] is “inactive”.
For the compound `Cc1noc(C)c1NC(=O)Nc1ccc2c(c1)C(=O)N([C@@H](C)CO)C[C@@H](C)[C@@H](CN(C)C(=O)c1ccccc1)OCCCC[C@@H](C)O2`, the cytotoxicity call in assay [1] and in assay [2] was “inactive” each time. Moreover, the growth inhibition call in assay [3] is “inactive”.

The values are drawn from the antibiotic and cytotoxicity screens of Wong et al. (2023).
